Measured values published in the supplement of paper PMC8728848.
The list shows a part of the results.

Experiments:
Experiment in all cases: glycan array binding signal (z-score within array); higher = stronger binding
Conditions in all cases: glycan notation: IUPAC condensed, linker removed
[1] = biological target: Neu5Ac(a2-3)Gal(b1-3)GlcNAc(b1-2)Man
Summary of the method: (§1)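 Columns mapping to the same glycan were averaged after glycan names were converted to IUPAC-condensed notation. The data come from 3228 arrays in the Consortium for Functional Glycomics database, limited to those with an available protein sequence. Binding is reported as a within-array Z-score averaged across arrays of one protein sequence and across linkers.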

[2] = biological target: Neu5Ac(a2-3)Gal(b1-3)GlcNAc(b1-2)Man(a1-3)[GlcNAc(b1-4)][Neu5Ac(a2-3)Gal(b1-3)GlcNAc(b1-2)Man(a1-6)]Man(b1-4)GlcNAc(b1-4)GlcNAc
Summary of the method: as §1

[3] = biological target: Neu5Ac(a2-3)Gal(b1-3)GlcNAc(b1-2)Man(a1-3)[Neu5Ac(a2-3)Gal(b1-3)GlcNAc(b1-2)Man(a1-6)]Man(b1-4)GlcNAc(b1-4)GlcNAc
Summary of the method: as §1

[4] = biological target: Neu5Ac(a2-3)Gal(b1-3)GlcNAc(b1-2)[Neu5Ac(a2-3)Gal(b1-3)GlcNAc(b1-4)]Man(a1-6)[Neu5Ac(a2-3)Gal(b1-3)GlcNAc(b1-2)Man(a1-3)]Man(b1-4)GlcNAc(b1-4)GlcNAc
Summary of the method: as §1

[5] = biological target: Neu5Ac(a2-3)Gal(b1-3)GlcNAc(b1-3)Gal(b1-3)GlcNAc
Summary of the method: as §1

[6] = biological target: Neu5Ac(a2-3)Gal(b1-3)GlcNAc(b1-3)Gal(b1-4)GlcNAc
Summary of the method: as §1

[7] = biological target: Neu5Ac(a2-3)Gal(b1-3)GlcNAc(b1-3)GalNAc
Summary of the method: as §1

[8] = biological target: Neu5Ac(a2-3)Gal(b1-3)GlcNAc(b1-6)GalNAc
Summary of the method: as §1

[9] = biological target: Neu5Ac(a2-3)Gal(b1-3)GlcNAc6S
Summary of the method: as §1

[10] = biological target: Neu5Ac(a2-3)Gal(b1-3)[Fuc(a1-4)]GlcNAc
Summary of the method: as §1

[11] = biological target: Neu5Ac(a2-3)Gal(b1-3)[Fuc(a1-4)]GlcNAc(b1-3)Gal(b1-3)[Fuc(a1-4)]GlcNAc
Summary of the method: as §1

[12] = biological target: Neu5Ac(a2-3)Gal(b1-3)[Fuc(a1-4)]GlcNAc(b1-3)Gal(b1-4)[Fuc(a1-3)]GlcNAc
Summary of the method: as §1

[13] = biological target: Neu5Ac(a2-3)Gal(b1-3)[GlcNAc(b1-6)]GalNAc
Summary of the method: as §1

[14] = biological target: Neu5Ac(a2-3)Gal(b1-3)[Neu5Ac(a2-6)]GalNAc
Summary of the method: as §1

[15] = biological target: Neu5Ac(a2-3)Gal(b1-3)[Neu5Ac(a2-6)]GlcNAc(b1-3)[Fuc(a1-3)[Gal(b1-4)]GlcNAc(b1-6)]Gal(b1-4)Glc
Summary of the method: as §1

[16] = biological target: Neu5Ac(a2-3)Gal(b1-3)]Neu5Ac(a2-3)Gal(b1-4)]GlcNAc
Summary of the method: as §1

Neu5Ac(a2-3)Gal(b1-4)Glc = biological target: Neu5Ac(a2-3)Gal(b1-4)Glc
Summary of the method: as §1

[17] = biological target: Neu5Ac(a2-3)Gal(b1-4)GlcNAc
Summary of the method: as §1

[18] = biological target: Neu5Ac(a2-3)Gal(b1-4)GlcNAc(b1-2)Man
Summary of the method: as §1

[19] = biological target: Neu5Ac(a2-3)Gal(b1-4)GlcNAc(b1-2)Man(a1-3)[GlcNAc(b1-4)][Neu5Ac(a2-3)Gal(b1-4)GlcNAc(b1-2)Man(a1-6)]Man(b1-4)GlcNAc(b1-4)GlcNAc
Summary of the method: as §1

[20] = biological target: Neu5Ac(a2-3)Gal(b1-4)GlcNAc(b1-2)Man(a1-3)[Neu5Ac(a2-3)Gal(b1-4)GlcNAc(b1-2)Man(a1-6)]Man(b1-4)GlcNAc(b1-4)GlcNAc
Summary of the method: as §1

[21] = biological target: Neu5Ac(a2-3)Gal(b1-4)GlcNAc(b1-2)Man(a1-3)[Neu5Ac(a2-3)Gal(b1-4)GlcNAc(b1-2)Man(a1-6)]Man(b1-4)GlcNAc(b1-4)[Fuc(a1-6)]GlcNAc
Summary of the method: as §1

[22] = biological target: Neu5Ac(a2-3)Gal(b1-4)GlcNAc(b1-2)Man(a1-3)[Neu5Ac(a2-6)Gal(b1-4)GlcNAc(b1-2)Man(a1-6)]Man(b1-4)GlcNAc(b1-4)GlcNAc
Summary of the method: as §1

[23] = biological target: Neu5Ac(a2-3)Gal(b1-4)GlcNAc(b1-2)[Neu5Ac(a2-3)Gal(b1-4)GlcNAc(b1-4)]Man(a1-3)[GlcNAc(b1-4)][Neu5Ac(a2-3)Gal(b1-4)GlcNAc(b1-2)[Neu5Ac(a2-3)Gal(b1-4)GlcNAc(b1-6)]Man(a1-6)]Man(b1-4)GlcNAc(b1-4)GlcNAc
Summary of the method: as §1

[24] = biological target: Neu5Ac(a2-3)Gal(b1-4)GlcNAc(b1-2)[Neu5Ac(a2-3)Gal(b1-4)GlcNAc(b1-4)]Man(a1-3)[GlcNAc(b1-4)][Neu5Ac(a2-3)Gal(b1-4)GlcNAc(b1-4)Man(a1-6)]Man(b1-4)GlcNAc(b1-4)GlcNAc
Summary of the method: as §1

[25] = biological target: Neu5Ac(a2-3)Gal(b1-4)GlcNAc(b1-2)[Neu5Ac(a2-3)Gal(b1-4)GlcNAc(b1-6)]Man(a1-6)[Neu5Ac(a2-3)Gal(b1-4)GlcNAc(b1-2)Man(a1-3)][GlcNAc(b1-4)]Man(b1-4)GlcNAc(b1-4)GlcNAc
Summary of the method: as §1

[26] = biological target: Neu5Ac(a2-3)Gal(b1-4)GlcNAc(b1-3)Gal
Summary of the method: as §1

[27] = biological target: Neu5Ac(a2-3)Gal(b1-4)GlcNAc(b1-3)Gal(b1-3)GlcNAc
Summary of the method: as §1

[28] = biological target: Neu5Ac(a2-3)Gal(b1-4)GlcNAc(b1-3)Gal(b1-4)GlcNAc
Summary of the method: as §1

[29] = biological target: Neu5Ac(a2-3)Gal(b1-4)GlcNAc(b1-3)Gal(b1-4)GlcNAc(b1-2)Man(a1-3)[Neu5Ac(a2-3)Gal(b1-4)GlcNAc(b1-3)Gal(b1-4)GlcNAc(b1-2)Man(a1-6)]Man(b1-4)GlcNAc(b1-4)GlcNAc
Summary of the method: as §1

[30] = biological target: Neu5Ac(a2-3)Gal(b1-4)GlcNAc(b1-3)Gal(b1-4)GlcNAc(b1-3)Gal(b1-4)GlcNAc
Summary of the method: as §1

[31] = biological target: Neu5Ac(a2-3)Gal(b1-4)GlcNAc(b1-3)Gal(b1-4)GlcNAc(b1-3)Gal(b1-4)GlcNAc(b1-2)Man(a1-3)[Neu5Ac(a2-3)Gal(b1-4)GlcNAc(b1-3)Gal(b1-4)GlcNAc(b1-3)Gal(b1-4)GlcNAc(b1-2)Man(a1-6)]GalNAc
Summary of the method: as §1

[32] = biological target: Neu5Ac(a2-3)Gal(b1-4)GlcNAc(b1-3)Gal(b1-4)GlcNAc(b1-3)GalNAc
Summary of the method: as §1

[33] = biological target: Neu5Ac(a2-3)Gal(b1-4)GlcNAc(b1-3)Gal(b1-4)GlcNAc(b1-3)[Neu5Ac(a2-3)Gal(b1-4)GlcNAc(b1-3)Gal(b1-4)GlcNAc(b1-6)]GalNAc
Summary of the method: as §1

[34] = biological target: Neu5Ac(a2-3)Gal(b1-4)GlcNAc(b1-3)Gal(b1-4)GlcNAc(b1-6)[Gal(b1-3)]GalNAc
Summary of the method: as §1

[35] = biological target: Neu5Ac(a2-3)Gal(b1-4)GlcNAc(b1-3)Gal(b1-4)[Fuc(a1-3)]GlcNAc
Summary of the method: as §1

[36] = biological target: Neu5Ac(a2-3)Gal(b1-4)GlcNAc(b1-3)GalNAc
Summary of the method: as §1

[37] = biological target: Neu5Ac(a2-3)Gal(b1-4)GlcNAc(b1-3)[Neu5Ac(a2-3)Gal(b1-4)GlcNAc(b1-6)]GalNAc
Summary of the method: as §1

B1: SAOUHSC 00176 (Staphylococcus aureus) (protein)
chain: MSKILKCITLAVVMLLIVTACGPNRSKEDIDKALNKDNSKDKPNQLTMWVDGDKQMAFYKKITDQYTKKTGIKVKLVNIGQNDQLENISLDAPAGKGPDIFFLAHDNTGSAYLQGLAAEIKLSKDELKGFNKQALKAMNYDNKQLALPAIVETTALFYNKKLVKNAPQTLEEVEANAAKLTDSKKKQYGMLFDAKNFYFNYPFLFGNDDYIFKKNGSEYDIHQLGLNSKHVVKNAERLQKWYDKGYLPKAATHDVMIGLFKEGKVGQFVTGPWNINEYQETFGKDLGVTTLPTDGGKPMKPFLGVRGWYLSEYSKHKYWAKDLMLYITSKDTLQKYTDEMSEITGRVDVKSSNPNLKVFEKQARHAEPMPNIPEMRQVWEPMGNASIFISNGKNPKQALDEATNDITQNIKILHPSQNDKKGD
[1]
  glycan array binding signal (z-score): -0.127
[2]
  glycan array binding signal (z-score): -0.089
[3]
  glycan array binding signal (z-score): 1.08
[4]
  glycan array binding signal (z-score): -0.122
[5]
  glycan array binding signal (z-score): -0.055
[6]
  glycan array binding signal (z-score): -0.08
[7]
  glycan array binding signal (z-score): -0.08
[8]
  glycan array binding signal (z-score): -0.111
[9]
  glycan array binding signal (z-score): -0.124
[10]
  glycan array binding signal (z-score): -0.157
[11]
  glycan array binding signal (z-score): -0.022
[12]
  glycan array binding signal (z-score): 0.023
[13]
  glycan array binding signal (z-score): 0.03
[14]
  glycan array binding signal (z-score): -0.11
[15]
  glycan array binding signal (z-score): -0.017
[16]
  glycan array binding signal (z-score): 0.023
Neu5Ac(a2-3)Gal(b1-4)Glc
  glycan array binding signal (z-score): -0.047
[17]
  glycan array binding signal (z-score): -0.091
[18]
  glycan array binding signal (z-score): 0.473
[19]
  glycan array binding signal (z-score): -0.093
[20]
  glycan array binding signal (z-score): -0.12
[21]
  glycan array binding signal (z-score): -0.119
[22]
  glycan array binding signal (z-score): 0.006
[23]
  glycan array binding signal (z-score): -0.073
[24]
  glycan array binding signal (z-score): -0.014
[25]
  glycan array binding signal (z-score): -0.068
[26]
  glycan array binding signal (z-score): -0.114
[27]
  glycan array binding signal (z-score): -0.09
[28]
  glycan array binding signal (z-score): 0.002
[29]
  glycan array binding signal (z-score): 0.122
[30]
  glycan array binding signal (z-score): -0.073
[31]
  glycan array binding signal (z-score): 0.214
[32]
  glycan array binding signal (z-score): -0.089
[33]
  glycan array binding signal (z-score): -0.07
[34]
  glycan array binding signal (z-score): -0.09
[35]
  glycan array binding signal (z-score): -0.015
[36]
  glycan array binding signal (z-score): -0.074
[37]
  glycan array binding signal (z-score): -0.085
